Experimental data reported in PubChem BioAssay AID488969 (Vanderbilt High Throughput Screening Facility, 2010).
The full ranking holds about 110,000 compounds; the median of “z-score” is about -0.1, and the highest 2% start at about 2. Some of the results follow. Calls of active or inactive are those of the source.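 Rule for the calls: active = z-score in the third read window above 3 or below -3; inactive = the rest.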 Residues, ends and D or L forms follow the SMILES beside them. *: point of attachment. Boc = CC(C)(C)OC(=O)*

biological target: Metabotropic glutamate receptor 8 (Rattus norvegicus) (UniProt P70579); assay: mGluR8 Gi/Go-coupled signaling modulation – cell-based, rat, thallium flux, HTS, primary screen (AID 488969); settings: HEK293 rat mGluR8, GIRK (G protein-gated inwardly rectifying potassium channel) thallium flux, FluoZin2; at 10 µM; stronger effect = higher value; submaximal glutamate (EC20) added with thallium
Chain of UniProt P70579 (P70579 whole entry, looked up): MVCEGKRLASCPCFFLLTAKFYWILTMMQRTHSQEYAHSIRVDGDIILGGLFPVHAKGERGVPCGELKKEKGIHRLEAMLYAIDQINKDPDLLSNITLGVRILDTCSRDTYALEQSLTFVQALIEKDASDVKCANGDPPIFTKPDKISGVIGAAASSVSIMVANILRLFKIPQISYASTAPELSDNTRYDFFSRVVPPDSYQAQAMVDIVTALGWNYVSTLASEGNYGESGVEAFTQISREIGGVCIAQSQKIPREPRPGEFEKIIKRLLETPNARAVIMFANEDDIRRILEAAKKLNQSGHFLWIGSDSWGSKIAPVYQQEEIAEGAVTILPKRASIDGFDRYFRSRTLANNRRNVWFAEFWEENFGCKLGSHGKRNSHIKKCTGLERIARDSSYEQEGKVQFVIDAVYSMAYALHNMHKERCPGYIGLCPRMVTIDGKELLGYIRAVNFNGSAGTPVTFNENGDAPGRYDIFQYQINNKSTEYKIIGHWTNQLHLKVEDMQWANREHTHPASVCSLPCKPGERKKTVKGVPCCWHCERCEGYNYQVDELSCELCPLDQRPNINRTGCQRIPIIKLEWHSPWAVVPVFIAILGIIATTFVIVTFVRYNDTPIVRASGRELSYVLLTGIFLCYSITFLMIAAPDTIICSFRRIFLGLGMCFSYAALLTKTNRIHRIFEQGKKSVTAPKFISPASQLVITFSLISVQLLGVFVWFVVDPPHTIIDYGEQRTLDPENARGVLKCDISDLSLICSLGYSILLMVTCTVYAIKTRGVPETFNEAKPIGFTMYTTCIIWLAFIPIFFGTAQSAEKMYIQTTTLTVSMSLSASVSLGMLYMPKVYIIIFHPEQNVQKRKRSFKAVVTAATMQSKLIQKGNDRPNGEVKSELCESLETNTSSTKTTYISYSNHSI

Structure (SMILES) | z-score
COc1cccc(-c2cc(C(F)(F)F)n3ncc(S(=O)(=O)c4ccccc4)c3n2)c1 | -0.112
Cc1ccc(Nc2cnn(C34CC5CC(CC(CC(=O)O)(C5)C3)C4)c(=O)c2Cl)cc1C | 0.781
O=C(NCc1ccccn1)c1cc(S(=O)(=O)N2CCN(c3ccccc3)CC2)ccc1Cl | 0.714
COC(=O)c1ccc(CSc2nnc(-c3ccncc3)n2Cc2ccccc2)o1 | -0.235
CC(C)CC(NC(=O)OC(C)(C)C)C(=O)NC(C(=O)N1CCCC1C(N)=O)C(C)C (stereo not drawn) (Boc-Leu-Val-Pro-NH2; configuration not given here) | -0.0933
Cc1sc(NC(=O)C2CCCCC2C(=O)O)c(C(N)=O)c1-c1ccc(C(C)C)cc1 (configuration not stated) | -0.823
N/C(=N\OC(=O)c1ccc(Cl)cc1)c1nonc1N | -0.12
Cc1ccc(/C=N/n2c(-c3cccs3)n[nH]c2=S)cc1 | active: 10
COc1ccccc1-c1nc(C#N)c(NCc2ccc(F)cc2)o1 | 0.186
COc1cc(NC(=S)Nc2cccc(Cl)c2Cl)c(OC)cc1Cl | 0.605
O=C(CSc1nc2ccccc2o1)Nc1nncs1 | 0.294
COCCn1nnnc1C(c1cccs1)N1CCN(c2nc3ccccc3s2)CC1 (configuration not stated) | -0.204
CCCCCNC(=O)CSC1=N/C(=C\c2ccc(Cl)c(Cl)c2)C(=O)N1CC | -0.0131
O=C(COC(=O)C1CCN(/C=C/C(=O)C(F)(F)F)CC1)Nc1ccccc1 | -0.035
Cn1cnnc1Sc1ccc(C(=O)OCC(=O)Nc2ccccc2)cc1[N+](=O)[O-] | -0.109
Cc1ccc(Cn2nc(C)c(NC(=O)C3(C)CC3(Br)Br)c2C)cc1 (configuration not stated) | -0.0354
Cc1c(-c2nnc(SCC(=O)O)n2-c2ccccc2Br)nnn1-c1ccccc1 | -0.177
Cc1c(NC(=O)CSc2nnc(Nc3ccccc3)s2)c(=O)n(-c2ccccc2)n1C | 0.78
CCC(C)C(NC(=O)OCc1ccccc1)C(=O)OCN1C(=O)c2ccccc2C1=O (configuration not stated) | -0.104
N#Cc1sc2nc(-c3cccs3)cc(-c3ccc(Cl)cc3)c2c1N | -0.0567
CC(OC(=O)c1nsc(Cl)c1Cl)C(=O)NCc1ccc2c(c1)OCO2 (configuration not stated) | -0.0924
C(=N\n1cnnc1)/c1ccc(OC2CSC2)cc1 | -0.459
Cc1ccccc1-n1c(SC(C)C(=O)N2CCN(C)CC2)nc2ccccc2c1=O (configuration not stated) | 0.712

Structure (SMILES) | z-score
CCOC(=O)Cn1c(CN(Cc2ccccc2)Cc2ccccc2)nc2c1c(=O)n(C)c(=O)n2C | -0.558
O=C(Nc1ccc2c(c1)OCO2)c1ccc(Cl)s1 | -0.0699
COc1ccccc1OCC(O)CN1C(=O)NC(C)(C)C1=O (configuration not stated) | -0.0712
CCOC(=O)NCc1ccc2c(c1)cc(C)n2C | -0.21
Cc1cc(Br)cc(C)c1NC(=O)c1ccccc1[N+](=O)[O-] | -0.058
C=CCOc1c(Br)cc(C2NC(=O)NC(C)=C2C(C)=O)cc1OCC (configuration not stated) | -0.802
CCCN1C(=O)C2(C(C(=O)c3ccc(C)o3)=C(O)C(=O)N2CCCN2CCOCC2)c2ccccc21 (configuration not stated) | 0.745
CCOC(=O)c1oc2c(CN3CCN(C)CC3)c(O)ccc2c(=O)c1-c1ccc(Br)cc1 | -0.3
N#Cc1c(Cl)cccc1-n1ccnc1 | 0.187
COc1cccc(OCC(O)CN2CCN(c3ccccn3)CC2)c1 (configuration not stated) | 0.0209
O=C(Nc1cccnc1)C(Cc1ccccc1)n1cccc1 (configuration not stated) | 0.0231
COc1ccc(/C=N/NC(=O)COc2ccc3ccccc3c2)c(C(=O)O)c1OC | -0.0431
CCOC(=O)c1cc(=O)n(Cc2ccccc2C)c2ccccc12 | -0.255
CN(C)S(=O)(=O)c1ccc(C(=O)NCCSc2ccccc2)cc1 | -0.262
N#Cc1cnc(SCC(=O)c2ccccc2)nc1N | 0.0176
Nc1cccc2c1C(=O)N(C(=O)c1ccc(Cl)c(S(=O)(=O)N3CCCCCC3)c1)C2=O | -0.285
CC1(C)CC(=O)C(C=Nc2ccc(Cl)cn2)=C(O)C1 | -0.475
CC(=O)NCC(=O)OCC(=O)c1ccc(C)c(C)c1 | 0.748
CC(=O)c1ccc(NC(=O)C(C)OC(=O)C(C)Oc2cccc(C)c2)cc1 (configuration not stated) | -0.117
O=c1oc(-c2ccc(F)cc2)nc2ccsc12 | -2.44
C=CCNC(=S)N1CCN(c2ncc3c(=O)c(C(=O)O)cn(CC)c3n2)CC1 | -0.0345
CCOC(=O)N1CCN(Cc2nc3c(c(=O)[nH]c(=O)n3C)n2Cc2cc(C)ccc2C)CC1 | 0.104
Cc1sc2ncnc(Sc3ccccc3C(=O)Nc3ccc(C#N)cc3)c2c1C | -0.758

Structure (SMILES) | z-score
CCN(CC)CCN1C(=O)C(=O)/C(=C(/O)c2ccc(Cl)cc2)C1c1ccncc1 (configuration not stated) | 0.0181
CC(=O)Nc1ccc(NC(=O)C2CCN(S(=O)(=O)c3cccc4nonc34)CC2)cc1 | -0.0835
COc1ccc(CCNc2nc3c(c(=O)n(C)c(=O)n3C)n2C)cc1OC | -0.21
O=C(NC(=S)Nc1ccc(N2CCOCC2)cc1)c1cccc(Cl)c1 | active: 4.95
CC(=O)Nc1sc(N/N=C\c2cccc(Cl)c2)nc1-c1cccs1 | -0.618
COc1ccc(C2CC(c3cccs3)=NN2C(=O)CSC2=NN3CCCC(=O)N=C3S2)cc1 (configuration not stated) | -0.108
CC1Oc2ccccc2N(CC(=O)c2cccc(Cl)c2)C1=O (configuration not stated) | -0.685
CCOc1cc(/C=N/NC(=O)CCCC(=O)NC2CCCCC2)ccc1O | -0.134
CSCC[C@H](NC(=O)c1nn(C)c(=O)c2ccccc12)c1nc2ccccc2[nH]1 | 0.17
O=C(c1ccc(CN2CCOCC2)cc1)N1CCN(c2ccccc2F)CC1 | 0.0451
CCN(CC)CCOC(=O)C1(c2ccccc2)CCCC1 | 0.739
CN=C(Nc1ccccc1)SC1CC(=O)N(c2ccc(C(=O)OC)cc2)C1=O (configuration not stated) | -0.385
Cc1nc2ccccc2cc1C(=O)NCc1ccco1 | -0.218
O=C(Cn1cnc2sc(-c3ccccc3)cc2c1=O)NCCc1ccccc1 | -0.863
COc1ccc(CNC(=O)Nc2cccc3ccccc23)cc1 | 0.426
O=C(c1cc(-c2ccc3c(c2)OCO3)on1)N1CCN(c2ccc(F)cc2)CC1 | -0.0803
CC(C)N(Cc1nc(-c2ccccc2)no1)C(=O)Cc1ccccc1 | -0.833
Cc1ccc(CN2C(=O)C3CCCN3c3ccc(S(=O)(=O)N4CCOCC4)cc32)cc1 (configuration not stated) | -0.425
CCCCn1nc2cc(C(=O)NCc3ccc4c(c3)OCO4)ccc2c1OCC | -0.318
CC(C)(C)NC(=O)c1ccc2nccnc2c1 | 0.232
Cc1cccc(C)c1NC(=O)CNc1ncnc2sc(C)c(C)c12 | 0.018
